Experimental findings from the supplement of paper PMC9446081 are described below.

Among all 39,000 compounds or so, about 220 (0.56%) showed activity. Some of the results follow.
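Also: static incubation at 37 °C against the wild-type strain, values averaged over two biological replicates.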

In this experiment the test system is Escherichia coli K-12 BW25113. Put plainly: relative growth (OD600 normalised to plate interquartile mean) (fraction); higher = less growth inhibition, active = 0.2 or less. The conditions noted are these: 50 µM; LB; incubation time: overnight (16-24 h).
For `C[C@@H]1CCCCO[C@@H](CN(C)S(=O)(=O)c2cccs2)[C@H](C)CN([C@@H](C)CO)C(=O)c2cc(NC(=O)Nc3ccc4c(c3)OCO4)ccc2O1`, the relative growth was inactive: 1.02.
With `CC(C)(C)c1cc(C(=O)NN)no1`, the relative growth is inactive: 0.904.
As to `C[C@@H]1CN([C@@H](C)CO)C(=O)c2cc(NC(=O)Nc3ccccc3)ccc2O[C@@H](C)CCCCO[C@H]1CN(C)C(=O)C1CCCCC1`, the relative growth was inactive: 1.
As for `C[C@@H]1CN([C@@H](C)CO)C(=O)CCCn2cc(nn2)CO[C@@H]1CN(C)C(=O)Nc1ccc(C(C)(C)C)cc1`, the relative growth was inactive: 0.966.
Under `C[C@@H]1CCCCO[C@@H](CN(C)Cc2ccncc2)[C@H](C)CN([C@@H](C)CO)C(=O)c2cc(NC(=O)Nc3cccc4ccccc34)ccc2O1` stands inactive: 1.04.
As to `CO[C@@H]1CN(C)C(=O)c2cc(NC(=O)C3CCC3)ccc2OC[C@@H](C)N(C(=O)Nc2ccc(C(F)(F)F)cc2)C[C@H]1C`, the relative growth was inactive: 1.
`COc1ccccc1-c1cnc2c(c1)C(=O)N([C@H](C)CO)C[C@@H](C)[C@@H](CN(C)C(=O)c1ccncc1)O2`: the relative growth is inactive: 1.01.
To `C[C@H]1CN([C@@H](C)CO)S(=O)(=O)c2ccc(-c3cccc(C#N)c3)cc2O[C@@H]1CN(C)C(=O)c1cccnc1` belongs inactive: 1.02.
`O=C(C1CCCCC1)N1CC(=O)N2CCc3ccccc3C2C1` (stereo unspecified): the relative growth is inactive: 1.09.
In the case of `COCCNC(=O)NC(=O)COC(=O)c1cccn1C`, the relative growth is inactive: 0.992.
On to `C[C@H](CO)N1C[C@H](C)[C@H](CN(C)S(=O)(=O)c2ccc(Cl)cc2)Oc2ccc(NS(C)(=O)=O)cc2CC1=O`, for which the relative growth is inactive: 1.04.
Turning to `CC(C)NC(=O)N(C)C[C@@H]1Oc2ccc(NC(=O)CCN3CCOCC3)cc2CC(=O)N([C@@H](C)CO)C[C@H]1C`, the relative growth was inactive: 0.994.
Regarding `CCCCCCCCCC(=O)N[C@@H](Cc1c[nH]c2ccccc12)C(=O)N[C@H](CC(N)=O)C(=O)N[C@@H](CC(=O)O)C(=O)N[C@@H]1C(=O)NCC(=O)N[C@@H](CCCN)C(=O)N[C@@H](CC(=O)O)C(=O)N[C@H](C)C(=O)N[C@@H](CC(=O)O)C(=O)NCC(=O)N[C@H](CO)C(=O)N[C@@H]([C@H](C)CC(=O)O)C(=O)N[C@@H](CC(=O)c2ccccc2N)C(=O)O[C@@H]1C`, the relative growth is inactive: 0.952.
As to `C[C@@H]1CN([C@@H](C)CO)C(=O)c2cc(-c3cccc(C(=O)N(C)C)c3)cnc2O[C@@H]1CN(C)S(=O)(=O)c1cccc(F)c1`, the relative growth was inactive: 0.998.
Regarding `C[C@H]1CN([C@@H](C)CO)C(=O)c2cc(-c3cccnc3)cnc2O[C@@H]1CN(C)C(=O)Nc1ccc2c(c1)OCO2`, the relative growth is inactive: 1.
For `C[C@H](CO)N1C[C@H](C)[C@@H](CN(C)C(=O)C2CCOCC2)Oc2ncc(C#CCc3ccccc3)cc2C1=O`, the relative growth is inactive: 0.994.
For the molecule `COCC#Cc1ccc2c(c1)O[C@@H](CN(C)C(=O)C1CCOCC1)[C@@H](C)CN([C@H](C)CO)S2(=O)=O`, the relative growth is inactive: 0.989.
Take `C[C@H](CO)N1C[C@H](C)[C@H](CN(C)S(=O)(=O)c2ccc(Cl)cc2)Oc2c(NC(=O)C3CC3)cccc2C1=O`: the relative growth was inactive: 0.991.
For `Cc1[nH]c(=O)[nH]c(=O)c1S(=O)(=O)N1CCC(C(=O)NCCC(C)C)CC1`, the relative growth was inactive: 0.982.
As to `NC(=O)c1ccccc1C(N)=O`, the relative growth is inactive: 0.986.
On to `C[C@H](CO)N1C[C@H](C)[C@@H](CN(C)S(=O)(=O)c2cn(C)cn2)Oc2ccc(NC(=O)Cc3ccccc3)cc2C1=O`, for which the relative growth was inactive: 0.975.
Consider `C[C@@H]1CN([C@@H](C)CO)C(=O)c2cccc(NC(=O)C3CCOCC3)c2O[C@H]1CN(C)S(=O)(=O)c1ccc(F)cc1`, for which the relative growth was inactive: 1.03.
To `C[C@H]1CN([C@@H](C)CO)C(=O)c2cccc(NC(=O)C3CC3)c2O[C@@H]1CN(C)Cc1ccc(Oc2ccccc2)cc1` belongs inactive: 1.02; to `C[C@H](CO)N1C[C@H](C)[C@@H](CN(C)Cc2ccc(Oc3ccccc3)cc2)Oc2c(NS(=O)(=O)c3ccc(Cl)cc3)cccc2C1=O`, inactive: 1.03.
Turning to `CO[C@@H]1CN(C)C(=O)c2ccc(NS(=O)(=O)CC(F)(F)F)cc2OC[C@H](C)N(Cc2nccs2)C[C@@H]1C`, the relative growth was inactive: 0.983.
Under `COc1ccc(NC(=O)N(C)C[C@@H]2Oc3ccc(NC(=O)CCCCCC(=O)Nc4ccccc4N)cc3C(=O)N([C@@H](C)CO)C[C@@H]2C)cc1` stands inactive: 0.957; under `Cc1noc(C)c1S(=O)(=O)Nc1ccc2c(c1)C(=O)N([C@H](C)CO)C[C@H](C)[C@@H](CN(C)S(=O)(=O)c1cccs1)O2`, inactive: 1.
Turning to `COc1ccc(NC(=O)Nc2ccc3c(c2)C(=O)N([C@H](C)CO)C[C@H](C)[C@H](CN(C)C(=O)Cc2ccccc2)OCCCC[C@@H](C)O3)cc1`, the relative growth was inactive: 1.01.
`COCC#Cc1cnc2c(c1)C(=O)N([C@H](C)CO)C[C@@H](C)[C@@H](CN(C)C(C)=O)O2`: the relative growth was inactive: 0.998.
Under `Cc1ccc(-c2cnc3c(c2)C(=O)N([C@H](C)CO)C[C@H](C)[C@@H](CN(C)C(=O)Cc2cccnc2)O3)cc1` stands inactive: 0.998; under `C[C@@H]1CCCCO[C@@H](CN(C)C(=O)Nc2cccc3ccccc23)[C@H](C)CN([C@H](C)CO)C(=O)c2cc(NS(=O)(=O)c3cn(C)cn3)ccc2O1`, inactive: 0.994.
On to `CN1C2CCCC1CC(NC(=O)c1nn(C)c3ccccc13)C2.Cl` (stereo unspecified), for which the relative growth is inactive: 1.07.
Take `C[C@@H]1CN([C@H](C)CO)C(=O)c2cc(NS(=O)(=O)c3ccc(Cl)cc3)ccc2O[C@@H](C)CCCCO[C@@H]1CN(C)Cc1ccccc1`: the relative growth was inactive: 0.965.
In the case of `C[C@H]1CN([C@@H](C)CO)S(=O)(=O)c2ccc(-c3cncnc3)cc2O[C@H]1CN(C)C(=O)C1CCCCC1`, the relative growth is inactive: 0.985.
To `NC(=O)CCNCc1ccccc1` belongs inactive: 1.01; to `CN1CC(=O)N2C(Cc3c([nH]c4ccccc34)C2c2ccc3c(c2)OCO3)C1=O` (stereo unspecified), inactive: 1.13.
Turning to `C[C@@H]1CN([C@H](C)CO)S(=O)(=O)c2ccc(C#Cc3ccncc3)cc2O[C@H]1CN(C)C(=O)Nc1ccc2c(c1)OCO2`, the relative growth was inactive: 1.02.
To `C[C@@H]1CN([C@H](C)CO)C(=O)Cc2cc(NC(=O)Nc3ccc(C(F)(F)F)cc3)ccc2O[C@H]1CN(C)S(=O)(=O)c1ccc(Cl)cc1` belongs inactive: 1.02; to `COc1ccc(S(=O)(=O)Nc2ccc3c(c2)CC(=O)N([C@@H](C)CO)C[C@H](C)[C@@H](CN(C)Cc2ccncc2)O3)cc1`, inactive: 1.02; to `COc1cccc(NC(=O)N(C)C[C@@H]2Oc3ncc(C#Cc4ccncc4)cc3C(=O)N([C@@H](C)CO)C[C@@H]2C)c1`, inactive: 0.979.
On to `CC1(C)OC(=O)C2(C(=O)O1)[C@@H](c1ccc(-c3cccc(Br)c3)cc1)CC(=O)C[C@H]2c1ccccc1`, for which the relative growth was inactive: 1.
For `C[C@H]1CC=CC[C@@H](c2ccc3c(c2)OCO3)NC(=O)[C@H](Cc2ccccc2)N(C)C(=O)c2ccccc2O1`, the relative growth is inactive: 1.05.
As for `C[C@H]1CN([C@@H](C)CO)C(=O)Cc2cc(NS(=O)(=O)c3cn(C)cn3)ccc2O[C@@H]1CN(C)S(=O)(=O)c1cccs1`, the relative growth was inactive: 0.997.
Turning to `COc1cc(C=CC(=O)N2CCC=CC2=O)cc(OC)c1OC`, the relative growth is inactive: 1.09.
For the molecule `C[C@@H]1CCCCO[C@H](CN(C)Cc2ccc(C(F)(F)F)cc2)[C@@H](C)CN([C@@H](C)CO)C(=O)c2cc(NC(=O)Nc3ccc4c(c3)OCO4)ccc2O1`, the relative growth was inactive: 1.05.
Under `CCCSc1nc(N[C@@H]2C[C@H]2c2ccc(F)c(F)c2)c2nnn([C@@H]3C[C@H](OCCO)[C@@H](O)[C@H]3O)c2n1` stands inactive: 0.736.
To `CCN1C(=O)S[C@@H](CC(=O)O)C1=O` belongs inactive: 1.03; to `C[N+](C)(C)CCOC(N)=O.[Cl-]`, inactive: 1.12.
For the molecule `C[C@@H]1CN([C@@H](C)CO)C(=O)c2cc(NC(=O)Nc3cccc4ccccc34)ccc2O[C@@H]1CN(C)C(=O)Nc1ccc(C(F)(F)F)cc1`, the relative growth is inactive: 1.01.
To `CCS(=O)(=O)N1C[C@]2(C1)CN([C@@H](CO)c1c2c2ccc(cc2n1C)OC)C(=O)c1ccc(cc1)F` belongs inactive: 1.06; to `COc1ccc(NC(=O)N2C[C@H](O)COC[C@H]3O[C@@H](CC(=O)NCc4ccccc4OC)CC[C@@H]32)cc1`, inactive: 0.994.
In the case of `CCCNC(=O)N(C)C[C@@H]1Oc2cc(C#Cc3ccccn3)ccc2S(=O)(=O)N([C@H](C)CO)C[C@@H]1C`, the relative growth is inactive: 0.986.
On to `C[C@H]1CN([C@@H](C)CO)C(=O)c2cccc(NS(=O)(=O)c3cn(C)cn3)c2O[C@H]1CN(C)CC1CC1`, for which the relative growth was inactive: 1.
Under `Cl.OC(CNCC(O)C1CCc2cc(F)ccc2O1)C1CCc2cc(F)ccc2O1` (stereo unspecified) stands inactive: 1.06; under `CO[C@H]1CN(C)C(=O)c2cc(NC(=O)Nc3ccccc3)ccc2OC[C@H](C)N(C(=O)CN(C)C)C[C@H]1C`, inactive: 1.01.
As for `CC(=O)C1CCC2C3CC(C)C4=CC(=O)CCC4(C)C3C(O)CC12C` (stereo unspecified), the relative growth was inactive: 0.935.
As for `COC(=O)c1c(C#N)c(N)nc2c1CCC2`, the relative growth is inactive: 0.967.
Under `C=CC[C@@H](CC(=O)NCCO)C(=O)N[C@@H](COC(=O)[C@H](CC=C)CC(=O)OC(C)(C)C)Cc1ccccc1` stands inactive: 0.968.
As to `C[C@@H]1CN([C@@H](C)CO)C(=O)c2cc(C#Cc3ccccc3F)cnc2O[C@@H]1CN(C)C(=O)C1CCOCC1`, the relative growth is inactive: 1.02.
Turning to `COc1ccc(CNC(=O)C[C@@H]2CC[C@@H]3[C@H](COc4ccc(NC(=O)C5CC5)cc4C(=O)N3C)O2)cc1`, the relative growth was inactive: 1.01.
`Cc1ccc(S(=O)(=O)N(C)C[C@H]2OCCCC[C@@H](C)Oc3ccc(NC(=O)Nc4ccc(F)cc4)cc3C(=O)N([C@H](C)CO)C[C@H]2C)cc1`: the relative growth is inactive: 1.06.
